{"source": "the supplement of paper PMC11417369", "note": "± gives the standard deviation of the averaged measurements. The list shows a part of the results."}
{"test_system": "PfAP2-LT AP2 domain (GST-tagged)", "test": "gcPBM binding intensity (ln(normalized median fluorescence intensity)); higher = stronger DNA binding", "how_it_was_run": "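Binding of GST-tagged P. falciparum DNA-binding domains, expressed in E. coli and used at about 25 μg on average, was carried out for 1 h in 1× PBS containing 1% milk, 0.2 mg/ml BSA, 0.5% salmon testes DNA and 0.03% Triton X-100. The target was an Agilent 4 × 180k array of primer-extended double-stranded 36-bp intergenic genomic probes plus negative controls, read with Alexa488 anti-GST antibody at 488 nm. Binding intensity is the highest Masliner-normalised natural-log median intensity across replicate spots of either probe orientation.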"}
{"sequence": "TTTAATTAAATATGTATATATATTCATGTATGTATA [GTGCAC_negctrl_site14]", "gcPBM binding intensity (ln)": "8.6 ± 0.38"}
{"sequence": "CATATACAGAAACACACACACACATAAATAAATATA [CACACA_site1343]", "gcPBM binding intensity (ln)": "10 ± 0.36"}
{"sequence": "AGTAGATATAAAAGGAGTACACATATATATATAAAT [XGTACX_site4375]", "gcPBM binding intensity (ln)": "9.12 ± 0.5"}
{"sequence": "AAAAAAAAAAGACACACACACATATTTATTTATATA [CACACA_site6484]", "gcPBM binding intensity (ln)": "9.67 ± 0.4"}
{"sequence": "AATATATAAGTGTTGTGTACTAAAGTATTTTCCTAT [XGTACX_site1622]", "gcPBM binding intensity (ln)": "8.8 ± 0.4"}
{"sequence": "TTTCCGTATAATTTTGCACACGAATATAAATTTGAT [CACACA_site137]", "gcPBM binding intensity (ln)": "9 ± 0.4"}
{"sequence": "ATAGTATCTGGTAGCTGTACGAGTCGTATAGTGCAG [XGTACX_site2542]", "gcPBM binding intensity (ln)": "8.88 ± 0.45"}
{"sequence": "ATAGTTTTACACATTTGTACATAATTTACAACAAAA [XGTACX_site25]", "gcPBM binding intensity (ln)": "8.57 ± 0.41"}
{"sequence": "TTTAATCAAATTAAAAGTACAGAATTGTTCATGTAG [XGTACX_site1229]", "gcPBM binding intensity (ln)": "8.53 ± 0.3"}
{"sequence": "ATATATATATATTCCACACACACACTAATAAAAAAA [CACACA_site9214]", "gcPBM binding intensity (ln)": "9.65 ± 0.26"}
{"sequence": "AAAAAATATTATATATGTACATAATATTTTTTTTTT [XGTACX_site5909]", "gcPBM binding intensity (ln)": "8.43 ± 0.42"}
{"sequence": "TGTTTTTGTGATCATATGAAAAAATTACCTACAAGG [CACACA_negctrl_site279]", "gcPBM binding intensity (ln)": "8.45 ± 0.4"}
{"sequence": "TATATATATATATATACATGCATATTTTTTATTTTT [TGCATGCA_site464]", "gcPBM binding intensity (ln)": "9.62 ± 0.13"}
{"sequence": "TTTTTTATATATATTTGTACATATTGCATGTTCCCT [XGTACX_site7143]", "gcPBM binding intensity (ln)": "8.95 ± 0.63"}
{"sequence": "TGTCTTATATATATTACACACTATATGAAAAAATAT [CACACA_site1487]", "gcPBM binding intensity (ln)": "8.66 ± 0.37"}
{"sequence": "TATATTTATCTGATAACACACATAAATTAGACATTT [CACACA_site6887]", "gcPBM binding intensity (ln)": "8.62 ± 0.38"}
{"sequence": "TAATTTAATAATTAGACACACATGTCTAAAATAAAA [CACACA_site2527]", "gcPBM binding intensity (ln)": "8.46 ± 0.6"}
{"sequence": "TAAAGTATTACAACCACACACACACCGATATATTAT [CACACA_site9382]", "gcPBM binding intensity (ln)": "9.85 ± 0.15"}
{"sequence": "AAAAGAAATTTGGGCACATGCGAATTTATAATTTAT [TGCATGCA_site960]", "gcPBM binding intensity (ln)": "8.86 ± 0.44"}
{"sequence": "TTATTATATAAAATAAATAACAAAAAAAATAAAATA [GTGCAC_negctrl_site548]", "gcPBM binding intensity (ln)": "8.38 ± 0.46"}
{"sequence": "ATTGTTTTATATAGAACACACATAAAAATCTATATG [CACACA_site6681]", "gcPBM binding intensity (ln)": "8.71 ± 0.44"}
{"sequence": "CAACATTTATATTTTACACACATCATTTAAGCGCTT [CACACA_site992]", "gcPBM binding intensity (ln)": "9.23 ± 0.28"}
{"sequence": "CCTATCCATACATATACACACATATCTATTTATATA [CACACA_site1669]", "gcPBM binding intensity (ln)": "9.04 ± 0.36"}
{"sequence": "TTTGAAATAAATAATGCACACTCTACATATATACGT [CACACA_site2244]", "gcPBM binding intensity (ln)": "8.94 ± 0.42"}
{"sequence": "AAATAAAATACAAGTTGTACTATAAGCTTTTTATAT [XGTACX_site8021]", "gcPBM binding intensity (ln)": "8.81 ± 0.37"}
{"sequence": "AATATGGTTATATATATATATATATATATATATATT [GTGCAC_negctrl_site566]", "gcPBM binding intensity (ln)": "9.51 ± 0.15"}
{"sequence": "AGAAATATATCTATTTGTCCGTATATTCATATTTAT [XGTACX_site8427]", "gcPBM binding intensity (ln)": "8.88 ± 0.46"}
{"sequence": "ATAAAAATATTGTCTAGTACATATTTATAATAAAAA [XGTACX_site7523]", "gcPBM binding intensity (ln)": "8.37 ± 0.46"}
{"sequence": "AGATTGGAACATTAAAGTACTTACTTTTTTTTTTTT [XGTACX_site8017]", "gcPBM binding intensity (ln)": "8.47 ± 0.4"}
{"sequence": "GATTACTAGAAATGCACACACTGATAAAATAAGGAA [CACACA_site6131]", "gcPBM binding intensity (ln)": "9.41 ± 0.4"}
{"sequence": "TATATATATGAGTATACACACCTGATAAAGGTATAT [CACACA_site5462]", "gcPBM binding intensity (ln)": "8.96 ± 0.35"}
{"sequence": "TTAAACTTGAAACACACACACACACCGATATAAAAA [CACACA_site4578]", "gcPBM binding intensity (ln)": "10.06 ± 0.085"}
{"sequence": "ATATATTTAAACAAAAGTACAAATCATAAATTCAAG [XGTACX_site3633]", "gcPBM binding intensity (ln)": "8.66 ± 0.42"}
{"sequence": "TATATATTCTTTTAATGTACATATTGTATTATATCC [XGTACX_site4501]", "gcPBM binding intensity (ln)": "8.86 ± 0.52"}
{"sequence": "TGACATAAAAAATATACACACTATAATATTTATACT [CACACA_site6776]", "gcPBM binding intensity (ln)": "8.83 ± 0.38"}
{"sequence": "TCTTTATCTTCTTATACACACATTTATTAAAAAAAA [CACACA_site445]", "gcPBM binding intensity (ln)": "8.55 ± 0.4"}
{"sequence": "ATTTTTTAAAAAGTAACACACACTCTTATATATAAT [CACACA_site9206]", "gcPBM binding intensity (ln)": "8.91 ± 0.45"}
{"sequence": "TATATACTCAAACACACACACACATACACAGACATA [CACACA_site5025]", "gcPBM binding intensity (ln)": "9.94 ± 0.31"}
{"sequence": "ATTTTTTTTTTTTTTTTTTTTGCACCATAAAATAAT [CACACA_negctrl_site1324]", "gcPBM binding intensity (ln)": "8.57 ± 0.45"}
{"sequence": "TATATATATATGTGTACACATTTGTCAGATTATATA [CACACA_site4813]", "gcPBM binding intensity (ln)": "9.18 ± 0.36"}
{"sequence": "ATTTTGACATTATATAGTACATATAATTTACATTTA [XGTACX_site3024]", "gcPBM binding intensity (ln)": "8.73 ± 0.4"}
{"sequence": "AATATAATTTTTTATTGTACAAAAAAATTATTTAAT [XGTACX_site3248]", "gcPBM binding intensity (ln)": "8.27 ± 0.42"}
{"sequence": "TATTATTAATATGTATGGTTGTAATCTGTGTCTCCT [TGCATGCA_negctrl_site190]", "gcPBM binding intensity (ln)": "8.85 ± 0.61"}
{"sequence": "AAGAACAAATATGAGGTGCAACACAATATATTATTA [GTGCAC_site9965]", "gcPBM binding intensity (ln)": "9.05 ± 0.47"}
{"sequence": "CATTTTGTAAGATATGCACACATGGATCATATTTTA [CACACA_site423]", "gcPBM binding intensity (ln)": "8.95 ± 0.34"}
{"sequence": "TTTTTTTTTATCAAATGTACATATATATAATAATAA [XGTACX_site3941]", "gcPBM binding intensity (ln)": "8.29 ± 0.35"}
{"sequence": "AATAAGTATACACATACACACACACCCAAAAAAAAA [CACACA_site8034]", "gcPBM binding intensity (ln)": "10 ± 0.39"}
{"sequence": "TATATAAGAATATATACACACATATATGTATATATA [CACACA_site2178]", "gcPBM binding intensity (ln)": "8.91 ± 0.35"}
{"sequence": "TTTTACAATGAAATATGTACTTAAATGTCCAAATTC [XGTACX_site781]", "gcPBM binding intensity (ln)": "8.51 ± 0.4"}
{"sequence": "AAAAAGAAAAATTGCACACACTTATAAAAATATACG [CACACA_site6074]", "gcPBM binding intensity (ln)": "9.07 ± 0.46"}
{"sequence": "GTTAACAAATAATGCACACAAATGGATAAAATTATA [CACACA_site3725]", "gcPBM binding intensity (ln)": "9.21 ± 0.38"}
{"sequence": "TTAACCATTAATTCTCTACACACTTTTATTTTATTT [CACACA_site8522]", "gcPBM binding intensity (ln)": "8.84 ± 0.67"}
{"sequence": "ATGGGTATTAAGTGTACACATATAGTGTATTTTGTT [CACACA_site4452]", "gcPBM binding intensity (ln)": "9.04 ± 0.3"}
{"sequence": "GTGTAAATATAATTAGTTTCACAAAACAAATATTTA [CACACA_negctrl_site717]", "gcPBM binding intensity (ln)": "8.61 ± 0.42"}
{"sequence": "AGGCACAAAATTAAATGTACATATATATATATATAT [XGTACX_site3323]", "gcPBM binding intensity (ln)": "9.835 ± 0.078"}
{"sequence": "ATATATATATGTTTGTGTACTTATGATATCATATAA [XGTACX_site3276]", "gcPBM binding intensity (ln)": "8.97 ± 0.37"}
